According to article PMC6061476, “Characterization of the caprolactam degradation pathway in Pseudomonas jessenii using mass spectrometry-based proteomics” (Applied Microbiology and Biotechnology, 2018):

Legend:
Assay type in all cases: biochemical
[1] = biological target: T1, PjAT (6-aminohexanoate aminotransferase, omega aminotransferase) (Pseudomonas jessenii, UniProt A0A2W0F5X5); assay: alanine dehydrogenase-coupled NADH assay, […] nm; settings: reverse direction: 2 mM substrate, 5 mM L-alanine, 0.1 mM NADH, 0.05 mM PLP, pH 8; activity sentence prints 5-oxohexanoate
T1 construct: gene CRX42_01150; full length, C-terminal His6-tag kept, pET20b+ (pET-PjAT), E. coli C41(DE3), Ni-NTA purified; ORF size 1367 bp; PLP enzyme
T1 sequence (A0A2W0F5X5 1-455): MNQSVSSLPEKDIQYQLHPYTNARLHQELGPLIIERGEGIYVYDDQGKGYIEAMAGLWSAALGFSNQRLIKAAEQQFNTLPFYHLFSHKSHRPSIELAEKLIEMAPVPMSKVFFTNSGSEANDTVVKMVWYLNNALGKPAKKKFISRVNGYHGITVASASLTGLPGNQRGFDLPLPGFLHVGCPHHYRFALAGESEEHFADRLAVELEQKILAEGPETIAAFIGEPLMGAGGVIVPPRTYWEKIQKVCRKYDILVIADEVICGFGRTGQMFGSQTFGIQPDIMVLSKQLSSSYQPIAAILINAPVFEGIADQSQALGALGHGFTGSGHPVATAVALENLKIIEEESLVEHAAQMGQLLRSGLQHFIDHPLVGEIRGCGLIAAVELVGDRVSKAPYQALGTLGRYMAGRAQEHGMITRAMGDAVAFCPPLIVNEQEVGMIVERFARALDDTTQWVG

[2] = biological target: T2, caprolactamase (CapA, CapB; α and β subunits) (Pseudomonas jessenii, UniProt A0A2W0EVE0+A0A2W0FH34); assay: UPLC-MS of 6-ACA formation; ATP dependence; settings: co-substrate caprolactam, MgCl2, pH 8.5
[3] = biological target: T2, caprolactamase (CapA, CapB; α and β subunits); assay: UPLC-MS of 6-ACA formation and caprolactam loss; settings: 2 mM caprolactam, 5 mM ATP, 10 mM MgCl2, 50 mM ammonium bicarbonate, pH 8.5; E. coli cell-free extract

UniProt A0A2W0EVE0, sequence (A0A2W0EVE0 whole entry, looked up): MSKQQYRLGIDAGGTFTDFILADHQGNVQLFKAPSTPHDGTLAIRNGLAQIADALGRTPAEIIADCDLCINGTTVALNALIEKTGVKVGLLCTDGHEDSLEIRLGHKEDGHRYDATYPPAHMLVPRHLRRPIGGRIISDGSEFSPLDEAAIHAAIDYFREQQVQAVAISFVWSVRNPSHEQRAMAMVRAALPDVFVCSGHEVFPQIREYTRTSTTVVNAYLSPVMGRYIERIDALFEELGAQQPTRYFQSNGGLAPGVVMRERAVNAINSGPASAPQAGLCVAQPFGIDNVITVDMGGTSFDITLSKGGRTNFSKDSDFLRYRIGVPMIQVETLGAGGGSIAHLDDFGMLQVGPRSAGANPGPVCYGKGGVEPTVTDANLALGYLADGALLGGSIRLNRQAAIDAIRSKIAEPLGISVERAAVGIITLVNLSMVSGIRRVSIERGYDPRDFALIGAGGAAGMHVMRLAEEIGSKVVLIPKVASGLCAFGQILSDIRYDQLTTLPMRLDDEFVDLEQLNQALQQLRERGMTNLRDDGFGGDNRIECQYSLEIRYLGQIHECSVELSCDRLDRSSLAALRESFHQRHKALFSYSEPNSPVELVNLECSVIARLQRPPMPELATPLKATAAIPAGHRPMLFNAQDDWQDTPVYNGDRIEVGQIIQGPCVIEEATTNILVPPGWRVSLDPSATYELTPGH
UniProt A0A2W0EVE0, sequence (A0A2W0FH34 whole entry, looked up, further chain): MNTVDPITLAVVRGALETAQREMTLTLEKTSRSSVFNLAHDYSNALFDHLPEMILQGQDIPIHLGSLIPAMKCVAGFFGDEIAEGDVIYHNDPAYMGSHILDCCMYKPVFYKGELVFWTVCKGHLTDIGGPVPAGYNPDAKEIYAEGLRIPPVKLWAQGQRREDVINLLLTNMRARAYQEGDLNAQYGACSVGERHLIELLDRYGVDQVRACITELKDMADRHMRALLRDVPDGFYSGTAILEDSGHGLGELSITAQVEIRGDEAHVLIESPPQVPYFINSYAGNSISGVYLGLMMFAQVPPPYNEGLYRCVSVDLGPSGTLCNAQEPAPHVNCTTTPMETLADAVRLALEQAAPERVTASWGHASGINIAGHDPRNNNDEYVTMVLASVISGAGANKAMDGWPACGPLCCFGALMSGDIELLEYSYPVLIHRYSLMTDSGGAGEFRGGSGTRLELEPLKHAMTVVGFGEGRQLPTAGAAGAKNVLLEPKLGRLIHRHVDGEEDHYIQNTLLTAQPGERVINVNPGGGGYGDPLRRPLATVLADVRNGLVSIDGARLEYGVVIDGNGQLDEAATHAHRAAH

## O=CCCCCC(=O)O [6-oxohexanoate]
[1]
  alanine dehydrogenase-coupled NADH assay, 340 nm: in both directions, so with 6-oxohexanoate or with 6-ACA as substrate

## Nc1ncnc2c1ncn2[C@@H]1O[C@H](COP(=O)(O)OP(=O)(O)OP(=O)(O)O)[C@@H](O)[C@H]1O [ATP]
[2]
  UPLC-MS of 6-ACA formation; ATP dependence: We demonstrated the ATP dependence of the caprolactamase activity using enzyme expressed in E. coli

## O=C1CCCCCN1 [caprolactam]
[3]
  UPLC-MS of 6-ACA formation and caprolactam loss: Time course analyses demonstrated that 6-ACA levels increased and caprolactam levels decreased in time
